According to the RNAGym collection of RNA variant scans (doi:10.7554/elife.90254):
Read counts are not given, so values of variants with three or more changes are uncertain.

B1: LINE1-full (parent)
chain: UACGUAGGUGGUUUUCCCCUGAUAGUGCUAAGGGGGCCUGGAAGUUUGGACUGGGCAGAGCUCAACACAGCGUGGCAAAGUGGCUGUGGCUAGACUGCCUCUCUGGAUUCCUCGUCACUCAGCAGGGCAUCUCUGAGAGAAAUGCC

Variants of: B1
Assay: self-cleavage, relative activity (ratio to wild type); higher = more cleavage; in vitro, sequencing; the parent is a self-cleaving ribozyme

Variant | self-cleavage
UACGUAGGUGGUUUUCCCCUGAUAGUGCUAAGGGGGCCUGGAAGUUAGGACUGGACAGAGCUCAACACAGCGUGGCAAAGUGGCUGUGGCUAGACUGCCUCUCUGGAUUCCUCGUCACUCAGCAAGGCACCUCUGAGAGAAAUGCC | 0.11
UACGUAGGUGGUUUUCCCCUGAUAGUGCUAAGGGGGCCUGGAAGUUAGGACUGGGCAGAGCUCAACACAGCGUGGCAAAGUGGCUGUGGCUAGACUGCCUCUCUGGAUUCCUCGCCACUCAGCAGGGCACCUCUGAGAGAAAUGCC | 1.97
UACGUAGGUGGUUUUCCCCUGAUAGUGCUAAGGGGGCCUGGAAGUUAGGACUGGGCAGAGCUCAACACAGCGUGGCAAAGUGGCUGUGGCUAGACUGCCUCUCCGGAUUCCUCGUCACUCAGCAGGGCGUCUCUGAGAGAAAUGCC | 2.19
UACGUAGGUGGUUUUCCCCUGAUAGUGCUAAGGGGGCCUGGAAGUUAGGACUGGUCAGGGCUCAACACUGCGUGGCGAAGUGGCUGUGGCUAGACUGCCUCUCUGGAUUCCUCGUCACUCAGCAGGGCACCUCUGAGAGAAAUGCC | 0.04
UACGUAGGUGGUUUUCCCCUGAUAGUGCUAAGGGGGCCUGGAAGUUCGGACUGGGCGGAGCUCAACACAACGUGGUAGAGUGGCUGUGGCUAGACUGCCUCUCUGGAUUCCUCGUCACUCAGCAGGGCAUCUCUGAGAGAAAUGCC | 0.12
UACGUAGGUGGUUUUCCCCUGAUAGUGCUAAGGGGGCCUGGAAGUUAGGACUGAGCAGAGCUCAACACAGCGUGGCAAAGGGGCUGUGGCUAGACUGCCUCUCGGGAUUCCUCGUCUCUCAGCAGGGCAUCUCUGAGAGAAAUGCC | 0.24
UACGUAGGUGGUUUUCCCCUGAUAGUGCUAAGGGGGCCUGGAAGUUAGGACUGGGCAGAGCCCAACACAGCGUGGCAAAGUGGCCGUGGCUAGACUGCCUCUCUGGAUCCCUCGUCACUCAGCAGGGCGUCUCUGAGAGAAAUGCC | 0
UACGUAGGUGGUUUUCCCCUGAUAGUGCUAAGGGGGCCUGGAAGUUAGGACUGGGCAGAGCUCAACACAGCGUGGCAAAGUGGCUGUGGCUAGACUGCCUCUCUGGAUUCCUCGUCACUCAGCAGGGCAUCUCUGAGAGAGGUGCC | 1.33
UACGUAGGUGGUUUUCCCCUGAUAGUGCUAAGGGGGCCUGGAAGUUAGGACCGGGCAGAGCUCAACACAGCGUGGCAAAGUGGCUGUGGCUAGACUGCCUCUCUGGAUUCCUCGUCACUCAGCAGGGCAUUUCUGAGAGAGAUGCC | 0.82
UACGUAGGUGGUUUUCCCCUGAUAGUGCUAAGGGGGCCUGGAAGUUAGGACUUGGCAGAGCUCGACACAGCGUGGCAAAGUGGCUGUGGCUAGACUGCCUCUCUGGAUUCCUCGUCACUCAGCAGGGUAUCUCUGAGAGAAAUGCC | 0.07
UACGUAGGUGGUUUUCCCCUGAUAGUGCUAAGGGGGCCUGGAAGUUAGGACUGGGCAGAGCCCAACACAGCGUGGCAAAGUGGCUGUAGCUAGACUGCCUCUCUGGAUUCCUCGUCACUCAGCAGGGCAUCUCUGAGAGAAAUGCC | 0.02
UACGUAGGUGGUUUUCCCCUGAUAGUGCUAAGGGGGCCUGGAAGUUAGGACUGGGCAGAGCUCAACACAGCGUGGCAAAGUGGCUGUGGCCAGACUGCCUCCCUGGAUUCCUCGUCACUCAGCAGGGCAUCUCUGAGAGAAAUGCC | 0.78
UACGUAGGUGGUUUUCCCCUGAUAGUGCUAAGGGGGCCUGGAAGUUCGGUCUGGGCAGAGCUCAACGCAGCGUGGCAAAGUGGCUGUGGCUAGACUGCCUCUCUGGAUUCCUCGUCACUCAGCAGGGCAUCUCUGAGAGAAAUGCC | 0.52
UACGUAGGUGGUUUUCCCCUGAUAGUGCUAAGGGGGCCUGGAAGUUCGGACUGGGCGGAGCUCAACACAGCGUGGCAAAGUGGCUGUGGCUAGACUGCCUCUCUGGAUACCUCGUCACUCAGCAGGGCAUCUCUGAGAGAGAUGCC | 1.04
UACGUAGGUGGUUUUCCCCUGAUAGUGCUAAGGGGGCCUGGAAGUUAGGACUGGGCAGAGCUCAACACAGCGUGGCAAAGUGGCUGUGGCUAGACUGCCUCUCUGGAUUCCUCGUCACUCAGCAGGGCACCUCUGAGAGAAGUGCC | 2.04
UACGUAGGUGGUUUUCCCCUGAUAGUGCUAAGGGGGCCUGGAAGUUAGGACUGGGCAGAGCUCAACACAGCGUGGCAAAGCGGCUGUGGCUAGACAGCCUCUCUGGAUUCCUCGUCACUCAGCAGGGCAUCUCUGAGAGAAAUGCC | 0.04
UACGUAGGUGGUUUUCCCCUGAUAGUGCUAAGGGGGCCUGGAAGUUAGGACUGGGCAGAGCUCAACACAGCGUGGCAAAGUGGCUGUGGCUAGACUGCCUCCCUGGAUUCCUCGCCACUCAGCAGGGCAUCCCUGAGAGAAAUGCC | 2.04
UACGUAGGUGGUUUUCCCCUGAUAGUGCUAAGGGGGCCUGGAAGUUAGGACUGGGCAGAGCUCAACACAGCGUGGCAAAGUGGUUGUGGCUAGACUGCCUCUCUGGAUUCCUCGUCACUCAGCAGGGCAUCUCUGAGAGAGAUGCC | 0.07
UACGUAGGUGGUUUUCCCCUGAUAGUGCUAAGGGGGCCUGGAAGUUAGGACUGGGCAGAGCUCAACACAGCGUGGCAAAGUGGCUGUGGCUAGACUGCCUCUCUGGAUUCCUCGUCACUCAGCAGGGCAUCUCCGAGGGAAAUGCC | 1.17
UACGUAGGUGGUUUUCCCCUGAUAGUGCUAAGGGGGCCUGGAAGUUAGGACUGGGCAGAGCUCAACACAGCGUGGCAAAGUGGCUGUGGCUAGACUGCCUCUCUGGAUUCCUCGUCACUCAGCAGGGCAUCUCUGAGAAGAAUGCC | 1.74
